Laboratory results published in PubChem BioAssay AID485297 (National Center for Advancing Translational Sciences (NCATS), 2010).
In all, about 320,000 compounds went through this assay and about 9,100 (2.8%) were called active. This list was built around the results that the source calls inconclusive (neither active nor inactive); the mix of calls is not that of the screen. Calls come from the whole dose curve; as a rule, active = well fitted activation curve with a large enough effect; inconclusive = small, poorly fitted or top-dose-only effect; inactive = no such curve, though single readings can be large or run the other way. No potency is given beside an inconclusive call; the fits are too rough.

Assay: qHTS Assay for Rab9 Promoter Activators; note: nearly all actives have a fitted effect of over 60% in size; for activation, negative = inhibition: % of control where 0% means no effect
Settings: Huh7 Rab9 promoter-luciferase reporter, luminescence, 24 h; series mostly up to 9.22 µM; activation, negative = inhibition: at the top concentration
Procedure, shortened: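 Quantitative HTS format; Huh7 Rab9-luciferase reporter cells (1500/well) receive compound 2 h post-plating, incubate 24 h at 37 °C, then get luciferase reagent for 10 min before luminescence reading.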
Potency is the fitted concentration of half-maximal effect; tags give direction and shape of the fitted curve.

Row | SMILES | Potency | activation, negative = inhibition
1 | CCCn1c(C)cc(C(=O)COc2ccc(-c3nnco3)cc2)c1C | inconclusive [activator, single point] | 
2 | CC(C)(C)n1cnc2cc(NCc3cccs3)ccc21 | inconclusive [activator, single point] | 
3 | CCOC(=O)c1cnc(SCC(=O)c2ccc3c(c2)OCCO3)nc1N | inconclusive [activator, single point] | 
4 | Cc1cc2c(s1)c1cnn(-c3ccccc3)c(=O)c1n2C | inconclusive [activator, single point] | 
5 | Cc1ccc(-n2ncc3c(SCc4ccccn4)ncnc32)c(C)c1 | inconclusive [activator, single point] | 
6 | CCOC(=O)C1CCCN(Cc2cc(=O)oc3cc(C)ccc23)C1 (stereo not given) | inconclusive [activator, single point] | 
7 | CCCOc1ccc2c(C)c(CC(=O)OC)c(=O)oc2c1 | inconclusive [activator, partial curve] | 
8 | COc1cc(C(=O)N2CCN(S(=O)(=O)c3ccc(C)cc3C)CC2)ccc1OCC(=O)N1CCOCC1 |  | inactive: 0.0629%
9 | Cc1cc(C(=O)OCC(=O)NC(C)C)c(C)o1 |  | inactive: -1.94%
10 | COc1ccc(NC(=S)N2CCN(S(=O)(=O)c3ccc(F)cc3)CC2)cc1OC |  | inactive: 0.379%
11 | COCCNc1nnc(SCC(=O)N2CCN(S(=O)(=O)c3ccccc3)CC2)s1 | inconclusive [activator, single point] | 
12 | C#CCn1c(C)cc(C)c(S(=O)(=O)c2ccccc2)c1=O | inconclusive [activator, single point] | 
13 | C/C(=N\NC(=O)c1ccncc1)c1cccc(NC(=O)c2ccc(C(C)(C)C)cc2)c1 | active: 2 µM | 
14 | FC(F)(F)c1ccccc1-n1c(-c2cnccn2)n[nH]c1=S |  | inactive: 10.6%
15 | Cc1ccc(C(=O)Nc2ncc(Cc3ccc(F)cc3)s2)o1 | active: 2.82 µM | 
16 | COC(=O)c1ccc(C(=O)Nc2ccc3nc(-c4ccncc4)[nH]c3c2)cc1 |  | inactive: -4.61%
17 | CN(CC(=O)Nc1cccc(S(=O)(=O)N2CCCC2)c1)CC(=O)Nc1ccc(Cl)c(C(F)(F)F)c1 |  | inactive: -12.6%
18 | Cc1cccc(NC(=O)c2nc[nH]c2C(=O)NCC(=O)OC(C)(C)C)c1 |  | inactive: -1.13%
19 | O=C(COC(=O)c1ccccc1NCCO)NCC1CCCCC1 |  | inactive: 12.6%
20 | OC[C@H]1O[C@@H](n2cnc3cncnc32)[C@H](O)[C@@H]1O |  | inactive: -1.88% [at 46.1 µM]
21 | C=CCn1c(SCC(=O)Nc2ccc(-c3nc4ccc(C)cc4s3)cc2)nnc1-c1ccncc1 | inconclusive [activator, partial curve] | 
22 | CC1Oc2ccccc2C=C1/C=N/NC(=O)c1ccccc1O (stereo not given) | inconclusive [activator, partial curve] | 
23 | COC(=O)C1C(=O)c2c([nH]c(C(=O)OC3CCCC3C)c2C)CC1C (stereo not given) | active: 1.41 µM | 
24 | Cc1ccc(C(=O)Nc2ccc3c(c2)CCC3)cc1 | active: 0.316 µM | 
25 | COc1ccc(/C=C/c2nnc(NC(=O)CSc3ccc(Cl)cc3)s2)cc1 | inconclusive [activator, partial curve] | 

Row | SMILES | Potency | activation, negative = inhibition
26 | c1ccc2c(c1)Cn1nc(Cc3nc4c(s3)CCCC4)nc1-2 | inconclusive [activator, single point] | 
27 | CC(=O)c1cccc(OCc2cc(C(=O)N(C)CCC3CCOCC3)no2)c1 | inconclusive [activator, partial curve] | 
28 | COc1ccc(C(=O)CNc2ccccc2C#N)cc1 | inconclusive [activator, partial curve] | 
29 | O=C(CSc1nnc2n1CCCN2)c1ccccc1 | inconclusive [activator, partial curve] | 
30 | COc1ccc(CCc2nnc(CCC(=O)NCc3cc(C(C)C)no3)o2)cc1 | inconclusive [activator, single point] | 
31 | Oc1ccc(Cl)cc1C=Nc1ccc(Br)cc1 |  | inactive: -0.658%
32 | CCOc1ccc(NC(=O)/C=C/c2ccccc2)c([N+](=O)[O-])c1 | inconclusive [activator, partial curve] | 
33 | Cc1cc(C)nc(NS(=O)(=O)c2ccc(NC(=O)c3cccs3)cc2)n1 |  | inactive: -3.09%
34 | O=C(Nc1ccccc1F)N1CCc2ccccc2C1 | active: 2.82 µM | 
35 | CC(C)OC(=O)CSc1nc2cc3c(cc2cc1C#N)OCO3 | inconclusive [activator, full curve] | 
36 | CS(=O)(=O)NN1C(=O)c2ccccc2NC1c1cccs1 (stereo not given) | inconclusive [activator, single point] | 
37 | Cn1nc(-c2ccccc2)cc1NC(=O)Nc1ccccc1F | inconclusive [activator, single point] | 
38 | COc1ccc(/C=N/n2c(=O)[nH]c3c([nH]c4ccc(Cl)cc43)c2=O)cc1CN1CCCCC1 |  | inactive: 0.483%
39 | Cc1ccc(C(NC(=O)C2CCCCC2)c2c(O)ccc3ccccc23)cc1 (stereo not given) | inconclusive [activator, single point] | 
40 | O=C(Cc1ccc(Br)cc1)N/N=C/c1ccc(-c2cccc(C(=O)O)c2)o1 |  | inactive: 1.39%
41 | COc1ccc(/C=C/C2=NC(=C\N(C)C)/C(=O)O2)cc1 | inconclusive [activator, partial curve] | 
42 | CCN(CC)S(=O)(=O)c1ccc(N2CCN(c3ccccc3O)CC2)nc1 |  | inactive: -1.78%
43 | O=S(=O)(c1ccccc1F)N1CCN(c2nc3ccccc3s2)CC1 | inconclusive [activator, single point] | 
44 | CCOC(=O)c1sc(NC(=O)C2CCC2)cc1C | inconclusive [activator, partial curve] | 
45 | c1ccc2[nH]c(-c3cscn3)nc2c1 | inconclusive [activator, partial curve] | 
46 | CN(C)c1cccc(C(=O)NCC2CCCO2)c1 (stereo not given) |  | inactive: 26.9%
47 | Fc1ccccc1/C=N/Nc1ccc(Cl)nn1 | inconclusive [activator, single point] | 
48 | COc1ccc(/C=C2\OC(=O)c3c(OC)cccc32)cc1OC | active: 2.82 µM | 
49 | O=C(c1cccs1)N1CCn2c1nc1ccccc12 | active: 3.98 µM | 
50 | COc1ccccc1CNC(=O)CN1C(=O)c2cccc(N)c2C1=O | inconclusive [activator, single point] | 

Row | SMILES | Potency | activation, negative = inhibition
51 | O=C(Nc1nccs1)c1ccc(COc2c(F)c(F)cc(F)c2F)cc1 | inconclusive [activator, single point] | 
52 | O=C(Nc1ccc2c(c1)CCC2)Nc1ccc2c(c1)OCO2 | active: 2.24 µM | 
53 | COc1cccc(C(=O)Nc2cccc(C(C)=O)c2)c1 | inconclusive [activator, single point] | 
54 | C/C=C/c1ccc(OCC(=O)OCc2csc(Nc3ccc(C)cc3)n2)c(OC)c1 | inconclusive [activator, partial curve] | 
55 | COc1cccc(C(=O)Nc2ccc(C3CC3(Cl)Cl)cc2)c1 (stereo not given) | active: 1.12 µM | 
56 | C#Cc1cccc(NC(=O)CSc2nnc(-c3ccc(C(F)(F)F)cn3)o2)c1 | inconclusive [activator, partial curve] | 
57 | CC(C)C[C@H](NC(=O)N1CCn2c1nc1ccccc12)C(=O)NC1CC1 | inconclusive [activator, single point] | 
58 | C/[N+]([O-])=C/c1c(OCc2ccccc2)ccc2ccccc12 | inconclusive [activator, single point] | 
59 | CC(C)(C)C(=O)CSc1nc2ccccc2o1 | inconclusive [activator, single point] | 
60 | COc1ccc(C2=NN(C(=O)CCC(=O)O)C(c3cccs3)C2)cc1 (stereo not given) | inconclusive [activator, single point] | 
61 | CC(C)=CCN1CCN(Cc2cnc(C)s2)CC1CCO (stereo not given) | active: 0.794 µM | 
62 | O=C(/C=C/c1ccco1)Nc1cccc(S(=O)(=O)N2CCOCC2)c1 | inconclusive [activator, single point] | 
63 | COc1ccc(NC(=O)c2ccc(-c3ccccc3Cl)o2)cc1 | inconclusive [activator, single point] | 
64 | C/C(N)=C(/C#N)C(=O)CSc1nn(-c2ccc(Cl)cc2)c(=S)s1 | inconclusive [activator, partial curve] | 
65 | CN(C(=O)c1ccccn1)c1nnc(-c2cnccn2)s1 | inconclusive [activator, partial curve] | 
66 | Cc1cccc(C)c1NC(=O)C(Cl)=C(Cl)Cl |  | inactive: -6.13%
67 | COc1ccccc1N(CC(=O)Nc1ccc2c(c1)OCCO2)S(C)(=O)=O |  | inactive: 1.49%
68 | CCN=c1scc(-c2cccs2)n1/N=C/c1cc(OC)ccc1O | inconclusive [activator, partial curve] | 
69 | COc1cc(C(=O)N(Cc2ccccc2)c2cccc(C)c2)ccc1OC(F)F |  | inactive: 0.606%
70 | CCCCSc1nc(O)cc(=O)n1CC |  | inactive: -2.68%
71 | CCOC(=O)Cc1csc(NC(=O)c2ccco2)n1 | inconclusive [activator, single point] | 
72 | Cc1cc(C)nc(SCC(=O)NC2=NN=C(c3ccc(Br)cc3)CS2)n1 | inconclusive [activator, partial curve] | 
73 | COc1ccc(C2C3C=CCC(c4cccc(-c5ccc(C)cc5)c4)C3C(=O)N2Cc2ccccc2)cc1Cl (stereo not given) |  | inactive: -12%
74 | COc1cc(CNCCCCO)ccc1OCc1ccccc1F | inconclusive [activator, partial curve] | 
75 | Nc1c(C(=O)Nc2ccc3c(c2)OCCO3)nnn1Cc1cccc(Cl)c1 | inconclusive [activator, partial curve] | 
